The source of these data is PMC4242493.

The list shows a part of the results. The list includes weakly bound sequences.

The assay concerns the target MaxL homodimer (UniProt P61244). The experiment in a line: universal protein-binding microarray (PBM). To be noted: PBS-based mixture, 10 nM His-tagged protein dimer, 2% milk, 200 ng/uL BSA, 50 ng/uL salmon testes DNA, 0.02% TX-100; detection with Alexa 488 anti-His …; high values mean tight binding; most listed sequences are background and not binding sites; double strand, one strand shown.
Chain of UniProt P61244 (P61244 whole entry): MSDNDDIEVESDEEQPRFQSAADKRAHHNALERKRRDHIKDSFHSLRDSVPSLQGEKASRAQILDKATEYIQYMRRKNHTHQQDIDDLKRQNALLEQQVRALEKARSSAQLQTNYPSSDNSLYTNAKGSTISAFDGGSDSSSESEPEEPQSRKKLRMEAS
CCACCTGG: the binding signal (normalized occupancy) worked out at 0.105.
To CTTACCGC belongs 0.0744.
With CGAAGGCA, the binding signal (normalized occupancy) came to 0.07.
To CCCAGGCA belongs 0.0746; to CTGTGGTA, 0.0785.
To GAATTAAC belongs 0.075.
To CAGGTGCA belongs 0.0844; to CCTGTAAG, 0.0745.
In the case of TAACTGCA, the binding signal (normalized occupancy) stood at 0.0726.
To CCGCCACG belongs 0.0847; to ACGTATCG, 0.0801; to GGATGCAA, 0.0807.
CGTGTGCA: the binding signal (normalized occupancy) is 0.0981.
Regarding ATTGCTTG, the binding signal (normalized occupancy) is 0.0731.
Take CCCCGTAC: the binding signal (normalized occupancy) was determined as 0.0757.
With AGTACGCG, the binding signal (normalized occupancy) was found to be 0.0818.
To ATGTCCAG belongs 0.0759; to AAGGTATA, 0.0782.
Take CAGATCAG: the binding signal (normalized occupancy) came to 0.0811.
Regarding CAATATTG, the binding signal (normalized occupancy) was 0.0704.
To ATTGCGGA belongs 0.0753; to CACCTTGG, 0.0779; to GTCTGTGA, 0.0803.
For AAGGGGGG, the binding signal (normalized occupancy) came out at 0.0707.
To ATTAATTC belongs 0.0771; to CTTTCGGC, 0.0737; to CGCATGAC, 0.105.
Regarding TCGGCAAA, the binding signal (normalized occupancy) was determined as 0.0705.
Consider GGTCCGGA, for which the binding signal (normalized occupancy) stood at 0.0702.
To ATTTTACG belongs 0.0801.
Regarding AGGCACTC, the binding signal (normalized occupancy) worked out at 0.0717.
To GCGGACGC belongs 0.0729; to CCACGGTC, 0.0736.
In the case of AGTATGAA, the binding signal (normalized occupancy) came out at 0.0778.
To GGGCTCGA belongs 0.0739; to CACCCTAG, 0.0781.
TACGATGA: the binding signal (normalized occupancy) was found to be 0.0751.
To CGGCCAGC belongs 0.0709; to CAATGGGG, 0.0767.
To ATTCGGGG belongs 0.0749; to CCCAAGAC, 0.0715.
To GGTTTCCA belongs 0.073; to CGACCGGC, 0.0683; to AACGCTCG, 0.0758.
On to GAATTCAA, for which the binding signal (normalized occupancy) was 0.0719.
With TAGCTACA, the binding signal (normalized occupancy) was 0.0754.
For AGTTGTAA, the binding signal (normalized occupancy) worked out at 0.0725.
To CCACCACA belongs 0.0826.
For ACCCTTTG, the binding signal (normalized occupancy) came to 0.0783.
ATTACGGG: the binding signal (normalized occupancy) amounted to 0.0754.
On to CGGCCCAC, for which the binding signal (normalized occupancy) was determined as 0.0748.
To AGTGACCG belongs 0.0736; to AACATGTA, 0.0923; to AGCTCGGC, 0.0685.
In the case of ACTCCCAA, the binding signal (normalized occupancy) was determined as 0.0732.
For ACAACGAT, the binding signal (normalized occupancy) turned out to be 0.0761.
To GGGAATGA belongs 0.0828; to GACTACGA, 0.0681; to AGATTACG, 0.0787.
To CTTACACC belongs 0.0763.
CGTCACAG: the binding signal (normalized occupancy) came to 0.0813.
To AGCCGTGG belongs 0.0713; to ATTACCCA, 0.0818.
In the case of CCAAGTAC, the binding signal (normalized occupancy) worked out at 0.0755.
To AAGAGAGA belongs 0.0687; to CCTCCCTA, 0.0736; to GTCACAAC, 0.0761.
To CTCTGGTA belongs 0.0732; to AGACCAAG, 0.0717; to CATTCGTC, 0.0749.
To AATCCATT belongs 0.0725.
CACGGAAA: the binding signal (normalized occupancy) is 0.0682.
Regarding AAGAAGAT, the binding signal (normalized occupancy) is 0.0729.
To GGTGGAAA belongs 0.0745.
For the sequence TAGGATAA, the binding signal (normalized occupancy) amounted to 0.0769.
To CGGGTTAC belongs 0.075; to AGGGTACG, 0.0744.
In the case of GCCGCTCC, the binding signal (normalized occupancy) amounted to 0.066.
To AAAACAGC belongs 0.0716; to CGGCACTC, 0.0701; to GAAGTGCA, 0.0728.
To GTTGGAGA belongs 0.0742.
To GAACCGCC belongs 0.0683; to CTGCCCAG, 0.0664.
As to GCCCGTCA, the binding signal (normalized occupancy) is 0.0701.
To CTTTCAAA belongs 0.0741.
As for CGACACAC, the binding signal (normalized occupancy) was 0.0855.
For GACAATTA, the binding signal (normalized occupancy) stood at 0.0791.
Turning to GCCGTCCC, the binding signal (normalized occupancy) stood at 0.069.
To CGCACAAC belongs 0.0757; to CATGTACG, 0.0957; to GCCGTCGC, 0.0689.
With AGGCGGAA, the binding signal (normalized occupancy) was 0.0698.
To ACATATAT belongs 0.0881; to TAAGCCAA, 0.0723.
To GTGCCTTA belongs 0.0789; to AGATGGAT, 0.081.
To CTCCACGA belongs 0.0817.
Take GCACAGAA: the binding signal (normalized occupancy) is 0.0697.
To GGCTGCCA belongs 0.0704; to GGATTCCA, 0.0852.
To TGCTTACA belongs 0.0879; to GCAACACC, 0.0794; to ATCAAAGC, 0.074.
Turning to AAGGCCAA, the binding signal (normalized occupancy) amounted to 0.0718.
In the case of CGCTTAGA, the binding signal (normalized occupancy) came to 0.0747.
To AAGCCCTC belongs 0.0696.
To AAGGGTCA belongs 0.0747.
To AGAGTCAA belongs 0.077; to AACCACTA, 0.0774; to ATTGCGTG, 0.0828.
On to CTGAGGAA, for which the binding signal (normalized occupancy) turned out to be 0.0723.
To AAGCGACA belongs 0.0721; to ACGGCAGC, 0.073.
As for CTGCATAC, the binding signal (normalized occupancy) is 0.0825.
To CAGGCGTA belongs 0.0683; to CCGACGTA, 0.0679; to GACGGAAC, 0.0708.
Turning to GAGGTGGA, the binding signal (normalized occupancy) was found to be 0.0765.
To AGGTCCTC belongs 0.073.
Consider CCTAACCC, for which the binding signal (normalized occupancy) came to 0.0784.
With ATACTTCA, the binding signal (normalized occupancy) was 0.0738.
For the sequence AGGGCACC, the binding signal (normalized occupancy) amounted to 0.0695.
On to AGTGTTTC, for which the binding signal (normalized occupancy) came out at 0.0789.
To AAAACTAT belongs 0.0769.
To ATAAGTTA belongs 0.0796; to CTGTGGGC, 0.0715; to AAAGGCAC, 0.0777.
GTTTGCCA: the binding signal (normalized occupancy) came to 0.0789.
To AACGTGTG belongs 0.108.
For ACCCTTTC, the binding signal (normalized occupancy) was determined as 0.0794.
To CTAATCAC belongs 0.0815.
To TCCATCAA belongs 0.0818; to AGGCCGAC, 0.0677; to AAATTTGC, 0.0681.
Take CTCTTTGA: the binding signal (normalized occupancy) was 0.0683.
On to CCCAAAGG, for which the binding signal (normalized occupancy) is 0.0621.
For ACTGCTTC, the binding signal (normalized occupancy) was 0.0747.
To GGAGCATA belongs 0.0843; to AGCCGTAC, 0.0707.
Consider AGAGGGAG, for which the binding signal (normalized occupancy) amounted to 0.0733.
To AGCACACG belongs 0.0942; to ATTAGTTG, 0.074.
Turning to ACAACGTC, the binding signal (normalized occupancy) was determined as 0.0706.
To AGCCATTA belongs 0.0779; to AGACAGAC, 0.0754.
To ATTGGATA belongs 0.076; to ACGAATAG, 0.0746; to GAAGTGTC, 0.0697.
Turning to GAATCGGC, the binding signal (normalized occupancy) is 0.0684.
Turning to CGACGTCC, the binding signal (normalized occupancy) was determined as 0.0695.
As to CCCATAAC, the binding signal (normalized occupancy) was 0.0784.
Consider AGTAGATC, for which the binding signal (normalized occupancy) is 0.0759.
AAGGGCGG: the binding signal (normalized occupancy) came out at 0.0683.
To CTTGTGGA belongs 0.0762; to CGGCGCGA, 0.0676; to AAGCTATT, 0.0752.
To CGCCGATC belongs 0.0712; to CATATAGA, 0.0864.
As to CGAAAAGC, the binding signal (normalized occupancy) was found to be 0.0632.
To AGACAACC belongs 0.0739; to ACGTTCTG, 0.0756; to GCTCCGCC, 0.064.
To AGTCGACG belongs 0.0691.
On to CGGCATGA, for which the binding signal (normalized occupancy) was 0.0962.
To ACTCGGGA belongs 0.0661; to AAGCGGTC, 0.0675; to AGACCCTG, 0.0694.
To CCGTTGTC belongs 0.0735.
Turning to ACGGGCTA, the binding signal (normalized occupancy) is 0.0742.
To ATGATGGC belongs 0.0855; to AAGTAAAT, 0.0775.
